Results reported in a compilation of properties of binary mixtures (doi:10.1021/acs.jced.3c00374).
Some of these densities may be calculated back from excess volumes.

Assay: xn = mol fraction of the nth substance listed
Conditions: 100 kPa

**Q.** What does the source list for `CCCC[n+]1ccn(C)c1.N#C[S-]` + OCCNCCO?
**A.** mass density (288.15 K, x1 = 0.1008): 1097.2 kg/m3; mass density (288.15 K, x1 = 0.2993): 1092.3 kg/m3; mass density (288.15 K, x1 = 0.4027): 1089.8 kg/m3; mass density (288.15 K, x1 = 0.5131): 1087 kg/m3; mass density (288.15 K, x1 = 0.7102): 1082.2 kg/m3; mass density (288.15 K, x1 = 0.8009): 1079.9 kg/m3; mass density (288.15 K, x1 = 0.9102): 1077.2 kg/m3; mass density (288.15 K, x1 = 1): 1075 kg/m3; mass density (298.15 K, x1 = 0.1008): 1090.9 kg/m3; mass density (298.15 K, x1 = 0.2103): 1088.3 kg/m3; mass density (298.15 K, x1 = 0.4027): 1083.9 kg/m3; mass density (298.15 K, x1 = 0.5131): 1081.3 kg/m3; mass density (298.15 K, x1 = 0.6087): 1079.1 kg/m3; mass density (298.15 K, x1 = 0.9102): 1072.1 kg/m3; mass density (298.15 K, x1 = 1): 1070 kg/m3; mass density (308.15 K, x1 = 0.1008): 1084.5 kg/m3; mass density (308.15 K, x1 = 0.2103): 1082.1 kg/m3; mass density (308.15 K, x1 = 0.4027): 1077.8 kg/m3; mass density (308.15 K, x1 = 0.5131): 1075.3 kg/m3; mass density (308.15 K, x1 = 0.7102): 1070.9 kg/m3; mass density (308.15 K, x1 = 0.9102): 1066.5 kg/m3; mass density (308.15 K, x1 = 1): 1064.5 kg/m3; mass density (318.15 K, x1 = 0.1008): 1078.2 kg/m3; mass density (318.15 K, x1 = 0.2103): 1075.9 kg/m3; mass density (318.15 K, x1 = 0.2993): 1074 kg/m3; mass density (318.15 K, x1 = 0.4027): 1071.9 kg/m3; mass density (318.15 K, x1 = 0.5131): 1069.6 kg/m3; mass density (318.15 K, x1 = 0.6087): 1067.6 kg/m3; mass density (318.15 K, x1 = 0.7102): 1065.4 kg/m3; mass density (318.15 K, x1 = 0.8009): 1063.5 kg/m3

**Q.** With `OCCNCCO` + CCCC[n+]1ccn(C)c1.N#C[S-] as the compound, how does the mass density (288.15 K, x2 = 0) read?
**A.** Its mass density is 1099.7 kg/m3.

**Q.** And the mass density (308.15 K, x2 = 0)?
**A.** Its mass density is 1086.8 kg/m3.

**Q.** What about the mass density (318.15 K, x2 = 0) of the same compound?
**A.** The mass density was 1080.3 kg/m3.
